± gives the standard deviation of the averaged measurements. This is one part of the list.
system: PfAP2-I AP2 domain 3 (GST-tagged); test: gcPBM binding intensity (ln(normalized median fluorescence intensity)); higher = stronger DNA binding
Procedure, shortened: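 GST-tagged P. falciparum DNA-binding domains produced in E. coli were incubated for 1 h on an Agilent 4 × 180k array of primer-extended double-stranded 36-bp intergenic genomic probes with negative controls. Binding intensity is the highest Masliner-normalised natural-log median intensity across replicate spots of either probe orientation, with bound protein detected by Alexa488 anti-GST antibody at 488 nm.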

Sequence | gcPBM binding intensity (ln)
TGCTCTCTCTTGTTGTGTACATAATACAATATATAT [XGTACX_site7427] | 8.49 ± 0.26
TACATTTAAAAAAAAACACACATATATATATATATA [CACACA_site2535] | 9.45 ± 0.35
ATATATTTGTATAATAGTACGTACAGGCAAAATATA [XGTACX_site7396] | 8.38 ± 0.38
AAAAAAAAAAAACACACACACACATACCCATACATA [CACACA_site5575] | 7.9 ± 0.37
TTTCTTTTTATATTCACACATAAATATATATATATA [CACACA_site6053] | 9.14 ± 0.16
TATATAAGGAAATATTGTACTTTTATATTTATATTA [XGTACX_site3814] | 7.44 ± 0.34
ATATAAAAATATAATACACACATAAAATATATTATA [CACACA_site969] | 7.75 ± 0.19
AGATATAAGAAAAGCACACACACACTAGAAAAAAAA [CACACA_site5559] | 8.27 ± 0.42
TAATTCTTGTAAAATGTGCGCAGTAGATATAGTTTT | 8.57 ± 0.52
ATATTTATTCAATCCAGTACATATTATATATTGTAT [XGTACX_site184] | 7.68 ± 0.56
ATAAAATTATATACGTGTACATATATATATTTATGT [XGTACX_site4653] | 8.14 ± 0.82
TATAAAAGTGGACACACACACATATATATATATATA [CACACA_site4673] | 9.47 ± 0.55
ACACATCAAATATAAAAAAAAAATAACTATAAATAA [CACACA_negctrl_site587] | 7.39 ± 0.51
CCTTTAAGCAAAAACACACACACATATTTATTTATA [CACACA_site6294] | 7.79 ± 0.47
AATTTTTTTTTTTTGTTGCACTTTTAGAGTTTTAAT [GTGCAC_site9519] | 9.78
TAATAAATAGGACACACACACATATTTATATATCAT [CACACA_site6771] | 7.88 ± 0.52
TTGCAAAATTGTTTTATCACAAATATATACTTAATA [CACACA_negctrl_site403] | 7.55 ± 0.49
TAATTATTTTCGGTACGTACTAATGTATATATAATT [XGTACX_site3895] | 7.84 ± 0.44
TAATAATTTTTTTTTTTTTTTTACGAAAATATGATT [GTGCAC_negctrl_site323] | 7.27 ± 0.4
ATAATAAGAACTCAGTGTACTATCCTTTGAATTAAC [XGTACX_site8117] | 7.83 ± 0.56
AACGTCTTTTTTTTTTTTTTTCTTTTTTTTTTTATT [CACACA_negctrl_site303] | 7.3 ± 0.67
TCCTTTTGAACCCTTTTTCTCACAAGACCTTTATAT [TGCATGCA_negctrl_site413] | 8.01 ± 0.42

Sequence | gcPBM binding intensity (ln)
TTTCGTTGTGTATTTTGTACATATTTTTAATTATAT [XGTACX_site6687] | 7.88 ± 0.59
AATATAAATATAAATTGTACTTAAAAATTTCACGCA [XGTACX_site5234] | 7.54 ± 0.28
TTAAAAAACTATAATACACACCAAAAATATGCACAT [CACACA_site7079] | 9.44 ± 0.7
TTATTTCAAAGTTGTTGTACAAAAATATATTTATAA [XGTACX_site5226] | 8.02 ± 0.42
AAGAAAAAGATGCGCATACACACAGATGAATAACAA [CACACA_site1627] | 8.13 ± 0.87
TTTCTTTTTTAAATTAAAATTTTTTTTTTTTTCGGT [TGCATGCA_negctrl_site52] | 7.27 ± 0.51
AAAGGTGTATTTAATACACACGTGTCATTAAAATTG [CACACA_site4508] | 8.19 ± 0.4
TATATAAATTATGTGAGTACATAATTTAGAAGGAAC [XGTACX_site2807] | 7.97 ± 0.38
AAAAAAATAATGTACACACACATATATGTTTATATA [CACACA_site6234] | 8 ± 0.26
AATTAAAAAGTTTTTAATGTTTTTAATTTTTTCCAC [XGTACX_negctrl_site423] | 7.49 ± 0.48
ATTAATATTTAGACTTGTACATATATAATATATGTC [XGTACX_site3766] | 7.54 ± 0.29
CTTTTTTGTAATAACACACACACAAACAGAAAAAAT [CACACA_site2075] | 8.43 ± 0.42
ATAAAATATCAATACCGTACACAAGCAGGTAAAATA [XGTACX_site3719] | 7.82 ± 0.8
AAAAAAAAAAAAAAAACACACAGAAATATATATATA [CACACA_site4611] | 9.1 ± 0.14
AAAGAAGGGAAACACACACACACACCCACAAAAAAA [CACACA_site3766] | 8.17 ± 0.21
TTTATATATTTTAGGAGTACATTAAATTATACCTTA [XGTACX_site5600] | 7.83 ± 0.31
TGTATATATATTTATGCATGCTGTGTGTATTCTTTT [TGCATGCA_site74] | 7.89 ± 0.7
AATAAAAAAAAAATAAATTTAATAATAATAATAAAA [CACACA_negctrl_site569] | 7.16 ± 0.71
TATAACAAAAAAAAATAAAAAATAAAACTATATATA [CACACA_negctrl_site504] | 7.25 ± 0.56
TTTTTTTTTTATTCTTCACACATTTCCAATAAAAAA [CACACA_site5601] | 8.3 ± 0.75
ACCTAAAATAACTACACACACATAAAAAAAAAAAAA [CACACA_site2529] | 7.96 ± 0.39
GTTATTATATATATGTGTACTTAAAAATTTTATGTC [XGTACX_site6084] | 8.17 ± 0.45

Reference: the supplement of paper PMC11417369
